The series concerns ATP. As to the kind of experiment: switch fluorescence ratio, 500 uM ATP over buffer (Cy3 cluster intensity, sum of 5 cycles each) (fold (ratio)); higher = stronger signal-on switching upon ATP binding; sequences stand for … in TCGTCGGCAGCGTCAGATGTGTATAAGAGACAGTTTTTTTTTTTTTTTTTTTTTTTTT…TC. The settings on record: aptamer strand: ATP DNA aptamer (quencher-CACCTGGGGGAGTATTGCGGAGGAAGG + anchor), 100 nM annealed; ATP concentration: 500 uM; one replicate. The method in brief: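 Clusters with intensities outside 100-1000 RFU were excluded. The remaining Cy3-labelled switching-strand clusters on a modified Illumina MiSeq flow-cell had been annealed to 100 nM quencher-labelled ATP aptamer and imaged in selection buffer, then after 15 min with 500 uM ATP at 22 °C, for five cycles separated by NaOH stripping and re-annealing. The fluorescence ratio, averaged per switch-domain sequence, is each cluster's summed target-cycle Cy3 intensity over its summed buffer-cycle Cy3 intensity.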

Sequences with one replicate were seen in a single cluster, so their values are uncertain.
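Further: ATP exposure 15 min at 22 °C before imaging.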

With TGGATTCACT, the switch fluorescence ratio is 0.971.

Consider TACTCAGGAC, for which the switch fluorescence ratio was determined as 1.06.

In the case of GGGAACGCTT, the switch fluorescence ratio was found to be 0.968.

As to TACGGCCAGT, the switch fluorescence ratio was 0.996.

With GTTGCACTTC, the switch fluorescence ratio was determined as 0.985.

For GGAGCCGGG, the switch fluorescence ratio was 1.03.

Regarding GTGATATTCT, the switch fluorescence ratio amounted to 1.53.

For the sequence GAGTCGAAAA, the switch fluorescence ratio is 1.04.

As for GCCTAAGCGT, the switch fluorescence ratio turned out to be 0.989.

With CATATCGGCG, the switch fluorescence ratio was found to be 1.03.

In the case of CATCAGTGGC, the switch fluorescence ratio was 1.06.

On to AGACGTTCTT, for which the switch fluorescence ratio is 1.02.

For GCTCCTATTT, the switch fluorescence ratio was found to be 0.981.

For the sequence ATTTCATTTG, the switch fluorescence ratio came out at 1.06.

Regarding GTCACAAGGT, the switch fluorescence ratio came out at 1.03.

For TCGTGGAGTA, the switch fluorescence ratio was found to be 1.02.

On to ACGCTAGAAT, for which the switch fluorescence ratio worked out at 1.07.

ATAATAACTA: the switch fluorescence ratio amounted to 1.

Take TAAGGATTAG: the switch fluorescence ratio is 1.02.

As to GATGGATTAA, the switch fluorescence ratio amounted to 1.03.

In the case of AAGGCAAAAA, the switch fluorescence ratio is 1.03.

In the case of TTTCGGTTGA, the switch fluorescence ratio stood at 1.05.

On to CGTGGATATA, for which the switch fluorescence ratio was 1.04.

As to AAATTAAGGC, the switch fluorescence ratio came to 1.02.

As for CACACAGGCT, the switch fluorescence ratio was 1.09.

With CTGGGAAGT, the switch fluorescence ratio was found to be 0.984.

Regarding ATTTTGGTGT, the switch fluorescence ratio was determined as 1.03.

As for AAGGATAACG, the switch fluorescence ratio worked out at 1.02.

Regarding TACGTATGAC, the switch fluorescence ratio came to 1.01.

With GTGGGACGC, the switch fluorescence ratio amounted to 1.05.

For TTGGGATGT, the switch fluorescence ratio is 0.989.

As to CGGGAGGCTG, the switch fluorescence ratio was determined as 0.975.

Consider AGCTTATTTT, for which the switch fluorescence ratio amounted to 1.01.

In the case of CTGTTTCCAG, the switch fluorescence ratio is 1.

Turning to CTTCCGGGGG, the switch fluorescence ratio is 1.02.

As for CGCGTGTGTC, the switch fluorescence ratio was determined as 1.

For CTCATCGTGT, the switch fluorescence ratio was 0.988.

As to AGAAATCCCT, the switch fluorescence ratio worked out at 1.04.

For AGGTGAACGG, the switch fluorescence ratio was 0.998.

On to GTGCCACTGG, for which the switch fluorescence ratio amounted to 1.

In the case of ACTATTGTTG, the switch fluorescence ratio came to 1.01.

In the case of GCCGCAGATC, the switch fluorescence ratio was found to be 4.67.

With GAAGACAGTT, the switch fluorescence ratio worked out at 1.04.

Turning to ATACGCAGCA, the switch fluorescence ratio was 1.37.

In the case of GATATTTGGG, the switch fluorescence ratio came out at 0.986.

For TATATAACCC, the switch fluorescence ratio was 0.977.

For ACGTTTTAAA, the switch fluorescence ratio is 1.02.

On to TACAGCTAGC, for which the switch fluorescence ratio was determined as 0.967.

For AAGCTGGACA, the switch fluorescence ratio came to 0.962.

In the case of CCAAATGTTC, the switch fluorescence ratio stood at 0.997.

For the sequence TTGTCTAACG, the switch fluorescence ratio came to 1.67.

Regarding GGGTCCGTTC, the switch fluorescence ratio came out at 1.06.

TTACAATCTA: the switch fluorescence ratio is 0.929.

With TGACGGTTTT, the switch fluorescence ratio came to 1.03.

In the case of GTAAGAAAGG, the switch fluorescence ratio came out at 0.944.

On to TTTACCCGCG, for which the switch fluorescence ratio was 0.959.

Take TAAAAGCCGT: the switch fluorescence ratio amounted to 0.998.

Consider AGGGTCGTCA, for which the switch fluorescence ratio was 1.06.

With CCTAATGCAA, the switch fluorescence ratio turned out to be 3.04.

Regarding TTAACGAGGA, the switch fluorescence ratio came to 1.01.

Regarding ATATCGACTT, the switch fluorescence ratio is 1.01.

Take CAGAGATGTC: the switch fluorescence ratio was found to be 1.04.

For CGAGGTCTCT, the switch fluorescence ratio was determined as 1.02.

TAAAGTAAAA: the switch fluorescence ratio was 0.919.

Regarding CGGGTGTCTT, the switch fluorescence ratio is 1.03.

As for TATATTCTTC, the switch fluorescence ratio is 1.22.

Take GTACGCGCA: the switch fluorescence ratio was found to be 1.06.

As for TTAAAGCCAT, the switch fluorescence ratio worked out at 1.08.

With CATCCCGTCC, the switch fluorescence ratio was determined as 1.27.

Regarding GTAATTACCT, the switch fluorescence ratio turned out to be 1.12.

For the sequence CTCACGATTA, the switch fluorescence ratio is 1.12.

On to ACATGACCCC, for which the switch fluorescence ratio came out at 1.15.

GAGTTTGAGC: the switch fluorescence ratio is 0.966.

On to ATGTGAACGG, for which the switch fluorescence ratio stood at 1.

With TCGCCATACG, the switch fluorescence ratio amounted to 2.73.

With GGAACCATCC, the switch fluorescence ratio came out at 1.84.

As for AAGGTGGGCA, the switch fluorescence ratio was determined as 1.01.

Consider AGCCGTTAGC, for which the switch fluorescence ratio was 1.01.

Consider ATGTGAGTCC, for which the switch fluorescence ratio was found to be 1.03.

In the case of CCTGGACATC, the switch fluorescence ratio came out at 1.1.

TACTATGAGC: the switch fluorescence ratio was found to be 1.02.

Take CTGGGCCTTC: the switch fluorescence ratio came to 1.08.

In the case of GCCGTAGACT, the switch fluorescence ratio amounted to 1.

With GTTGATGTCT, the switch fluorescence ratio came out at 0.887.

As to GGGATTTGAG, the switch fluorescence ratio is 0.945.

GGATTCAACG: the switch fluorescence ratio worked out at 1.

Regarding TTCAGGCTCG, the switch fluorescence ratio worked out at 0.999.

On to TGTTATCGTG, for which the switch fluorescence ratio was found to be 0.973.

Consider ATCGGAGCCC, for which the switch fluorescence ratio is 1.05.

As to CCGGGGTACC, the switch fluorescence ratio was 1.85.

On to GCCTTTCCAA, for which the switch fluorescence ratio came out at 1.08.

For the sequence TATAATAAGA, the switch fluorescence ratio is 0.981.

Regarding GGTCTTTGTT, the switch fluorescence ratio is 0.948.

Turning to TAATCTATTA, the switch fluorescence ratio turned out to be 1.02.

As to GCAGCAGTTG, the switch fluorescence ratio came to 1.09.

In the case of TACAGTGCTG, the switch fluorescence ratio turned out to be 1.01.

GGTTTTTGAA: the switch fluorescence ratio was 0.98.

For CAGCTGTTCT, the switch fluorescence ratio worked out at 1.01.

Regarding CTTTTGGAGC, the switch fluorescence ratio is 1.1.

In the case of GTGGCCGACG, the switch fluorescence ratio came to 1.02.

TAAGATTCGC: the switch fluorescence ratio is 0.923.

With GAGGTACTTA, the switch fluorescence ratio is 1.01.

For ATTGGAGTA, the switch fluorescence ratio was 0.968.

Regarding GAACGCTA, the switch fluorescence ratio is 3.2.

On to CGAGTAAGCT, for which the switch fluorescence ratio worked out at 1.03.

On to TCATTTGCCA, for which the switch fluorescence ratio amounted to 1.08.

As for TAATTTACGC, the switch fluorescence ratio turned out to be 1.07.

Turning to GAATGATAAC, the switch fluorescence ratio was determined as 0.991.

As to TGTGGCGGGT, the switch fluorescence ratio turned out to be 0.986.

On to AGGAAGCAAA, for which the switch fluorescence ratio came out at 1.11.

ATAGACTTGG: the switch fluorescence ratio is 1.01.

Turning to GGTCCTTACG, the switch fluorescence ratio stood at 1.02.

Turning to ACGGTGGGGC, the switch fluorescence ratio is 1.03.

In the case of GTGCGAAAAG, the switch fluorescence ratio worked out at 0.978.

As to CTAAGGTGT, the switch fluorescence ratio was 1.23.

TACACTTTCT: the switch fluorescence ratio stood at 1.02.

As for CTCAGTTA, the switch fluorescence ratio is 1.02.

Regarding CTGGTGAAAT, the switch fluorescence ratio was 1.

CCCATTCCCC: the switch fluorescence ratio was 1.22.

CGAGAAATCT: the switch fluorescence ratio was found to be 1.05.

The values above are taken from the supplement of paper PMC10126150.
